The other results are listed elsewhere or left out. At the low end of the ranking the order means little. Measured with an extract: partners may take part in the binding.
What follows are sequences tested against T1, HNF4alpha8 (COS-7 nuclear extract) (UniProt P41235-5) (assay: protein-binding microarray). Conditions: COS-7 nuclear extract on double-stranded Agilent 4x180k PBM; binding buffer, salt, pH and temperature not given; high values mean tight binding; double strand, one strand shown; sequences stand for … in …GCCTAGGGAGATTAGAGTATCGGTCGA.
T1 sequence: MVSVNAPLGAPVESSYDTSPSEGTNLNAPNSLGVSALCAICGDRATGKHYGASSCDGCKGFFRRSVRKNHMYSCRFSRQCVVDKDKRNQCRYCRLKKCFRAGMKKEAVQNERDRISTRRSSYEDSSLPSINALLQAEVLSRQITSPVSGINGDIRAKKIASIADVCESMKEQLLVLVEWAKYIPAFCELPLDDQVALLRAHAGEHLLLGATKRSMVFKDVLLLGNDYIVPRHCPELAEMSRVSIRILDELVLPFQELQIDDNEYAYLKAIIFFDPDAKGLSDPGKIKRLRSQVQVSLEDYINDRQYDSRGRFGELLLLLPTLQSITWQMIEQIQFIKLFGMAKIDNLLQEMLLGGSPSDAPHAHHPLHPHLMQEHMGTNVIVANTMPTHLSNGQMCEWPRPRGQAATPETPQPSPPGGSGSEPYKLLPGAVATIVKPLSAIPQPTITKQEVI
For TTGTGTAAGTGTGGGTTTAAGTAAGCCCCC, the binding signal (log2 normalized intensity) was 4.14.
For TGGTTTGCCTCTCTTAGGTGACAGCCTTTT, the binding signal (log2 normalized intensity) was 1.22.
Work on AGCGGCCATTTACTGACTAAAGGTTAAACA yielded a binding signal (log2 normalized intensity) of 2.37.
In the case of TGCCTTTGATGTTTCAGCCCTAAAGACCAC, the binding signal (log2 normalized intensity) is reported as -0.436.
TCCCTCCCAGTACAAAGTTCACTTTCTTGT showed a binding signal (log2 normalized intensity) of 5.45.
For AGTTTACTTCATCTAAGTGGGTCTAGGTTC, the binding signal (log2 normalized intensity) was 1.84.
AGATCATCCTGCAGTTCCTGATCTTTGACC showed a binding signal (log2 normalized intensity) of 7.84.
CTCAGATCACAAAAGATGGAACAAGCCAGG showed a binding signal (log2 normalized intensity) of -1.34.
TATCCCTGGAGCCTTAGAAGATGACCTTTT showed a binding signal (log2 normalized intensity) of 6.37.
AAAACAGCAGAGCACGATGAATAGGGACGT showed a binding signal (log2 normalized intensity) of -1.31.
CTTTATCTAAGTAAACTAGTGATGTGGAAA gave a binding signal (log2 normalized intensity) of 0.92.
ACCTGGAGCCCTTAGGGTCAATGGGACATT showed a binding signal (log2 normalized intensity) of 3.33.
For GGATCGGAACCCCACCCCCACGCCCCCCAG, the binding signal (log2 normalized intensity) was 7.03.
For GCACCAGAGATAATATGCTTACTTAACTCC, the binding signal (log2 normalized intensity) was -1.17.
In the case of TGCTCATTGACCCTTAGGCCAAGGCTTACT, the binding signal (log2 normalized intensity) is reported as 2.52.
TTTGTCTGTGTAGACTCATCTGGTGTCATT showed a binding signal (log2 normalized intensity) of 1.95.
CTTCTCCCTCTTATCAGCTGCTAAGTCTTT was tested, and the binding signal (log2 normalized intensity) was 0.883.
For GAATGAGGGAGGCAGCCACCTAGGCCGGTC, the binding signal (log2 normalized intensity) was -1.33.
AATGCTGCAATTCTCTTTGCCAAAGCATAG showed a binding signal (log2 normalized intensity) of -1.26.
Work on GTATGTGGACTTTCAACTGCAGGGGGGTGG yielded a binding signal (log2 normalized intensity) of 3.09.
In the case of CTTATCTGGTGTGCTTTCTGTCCTCTCAAA, the binding signal (log2 normalized intensity) is reported as 1.25.
Sequence CAAATAAACCTTTGACCAATTGACCCTATC has a binding signal (log2 normalized intensity) of 4.69.
Work on AATTTAGCAAGACTGCAAAATAGACAAACA yielded a binding signal (log2 normalized intensity) of -1.19.
With AGAGCAGGACTGATATCCTGGGCTTTTAAT the binding signal (log2 normalized intensity) was -1.24.
For CTTGATAACAAAAATATCACAATCCTTAAG, the binding signal (log2 normalized intensity) was -1.4.
TGCCCAGGGATTCCTGAAGATCGCAGACTT was tested, and the binding signal (log2 normalized intensity) was -1.26.
GGACATTCTATGGAATACAGCAGGGTAGAA gave a binding signal (log2 normalized intensity) of -0.863.
For CTGCTCCCCTGGCCTCACCCTTGTCCCTGA, the binding signal (log2 normalized intensity) was 2.8.
AATCTAGGATAACTCTAGTGATCTTATCAG showed a binding signal (log2 normalized intensity) of 0.988.
With CCAAAGAAAAAAGCCAATCTCTCAAATCTA the binding signal (log2 normalized intensity) was -1.29.
CAGTGCAGCGGGGTCAGAGAAACCTGGCTG gave a binding signal (log2 normalized intensity) of -1.24.
In the case of GTTGGGCAGAAGGTGTTTCAGATGGACCAA, the binding signal (log2 normalized intensity) is reported as 1.98.
Sequence GGAGACTTCCAGGGAATAAAGAACTCTAAG has a binding signal (log2 normalized intensity) of -1.31.
TAAGCTATGTGGTGGAATGGAAAGAATATG gave a binding signal (log2 normalized intensity) of 0.046.
AGTGCCATGTAATCAAACTGAACTTTGAAA was tested, and the binding signal (log2 normalized intensity) was 4.48.
Sequence GTCCCAGCCTAGGCCTTTGTGTAAACTCCT has a binding signal (log2 normalized intensity) of -0.694.
In the case of ATCTGGGACAAGGGGGAGGAGAGTACTGTC, the binding signal (log2 normalized intensity) is reported as -1.32.
With TCCGCTTGCCTGAGGGTCATGACTAAAGCA the binding signal (log2 normalized intensity) was 1.13.
AAAGCAGCCAACCAGAGGCTGAAGTGAAGT showed a binding signal (log2 normalized intensity) of -1.21.
With GCAGTTTAGAGAAAGGGTCAAAGGTTAAGC the binding signal (log2 normalized intensity) was 9.04.
Sequence CAGCCGGAGAGGCAAGTATGGTAAGGTCGA has a binding signal (log2 normalized intensity) of 1.53.
TTCCCTTGTTTACCTTGGTGTTTCTTTGAT showed a binding signal (log2 normalized intensity) of 1.89.
Work on TTACCTCTGCTCCCCCTGCCCTTCGTCCTG yielded a binding signal (log2 normalized intensity) of 4.04.
TGCAATAGAGCCACATTCTGAGACTAAAGA gave a binding signal (log2 normalized intensity) of -1.25.
Sequence CTGGCCTTTCATGCCGGCGTGACCCCCACT has a binding signal (log2 normalized intensity) of 5.79.
GGACTTTGAACCTTGGGTCTGTAATCTCAC showed a binding signal (log2 normalized intensity) of 7.84.
In the case of AGAATAAGGGTTCATCTGACTGGAAGAGCC, the binding signal (log2 normalized intensity) is reported as -0.344.
Sequence ACCCCACTTTGGTTCACCGCTCACTGCTCC has a binding signal (log2 normalized intensity) of -0.611.
Sequence TACTCTAGAACACTTTCCACTCTCTACTGA has a binding signal (log2 normalized intensity) of -1.39.
CCTGGGATCGAAAGGACATTGTCCATCACC was tested, and the binding signal (log2 normalized intensity) was 1.06.
In the case of AGCCTGGGCCCCAGGGGACGTGGAATAGAT, the binding signal (log2 normalized intensity) is reported as -0.711.
GGGACCGGCCTTTCCCGGCTGCCTAAGCAC gave a binding signal (log2 normalized intensity) of -1.35.
For TCTTTTGAGCTGTGGTTAAGACTCAAAGTT, the binding signal (log2 normalized intensity) was 0.106.
Work on GTAAGTGTTAATGGCACTTCGTTTCAAAGT yielded a binding signal (log2 normalized intensity) of 0.602.
In the case of AGGTCACACTGATACAGCATGGCCCAGGGA, the binding signal (log2 normalized intensity) is reported as -1.35.
TCTGATTAGAGGCTCAGGTAAAGGCATGCT was tested, and the binding signal (log2 normalized intensity) was -1.26.
TGCACTTATCTTAATACTTTGGAACTCAGT gave a binding signal (log2 normalized intensity) of 2.06.
Sequence TACATTCTTAGAAGATAAAGTGTCTCCCTC has a binding signal (log2 normalized intensity) of 1.49.
In the case of CTCTCTCGTTTTTTTTTTCCCTGAGTCTGT, the binding signal (log2 normalized intensity) is reported as 2.21.
AAAAAAAAAAATACTCCTATCACCGAGGGA showed a binding signal (log2 normalized intensity) of -1.31.
Work on TCTCAGGTGAGCAGAGGGAGGACAAAGTTC yielded a binding signal (log2 normalized intensity) of 5.01.
GCTGAAAGTACTGGCCAGATGAGGTCAGCA showed a binding signal (log2 normalized intensity) of 2.47.
For TCTGCAACACTTTCTAAGGACACAACAGAA, the binding signal (log2 normalized intensity) was -1.29.
For GTGATGACCCCATACTTCAGCAATTTCTTA, the binding signal (log2 normalized intensity) was 1.16.
CAAACAGAACTGTTAACTTTGTACTCAATT gave a binding signal (log2 normalized intensity) of 2.26.
With CCTATATAGTTGAGATTGTAACCGTAAATG the binding signal (log2 normalized intensity) was 1.06.
GCAAGACTCGTGAAAAGAGTGATCTTTGGG was tested, and the binding signal (log2 normalized intensity) was 1.27.
For TGTCCTTTGTCCTGTACCTGGGAAGATAAG, the binding signal (log2 normalized intensity) was 1.55.
Sequence AGTTGTCATTTGGGGCGGGCGGTCGGAGTC has a binding signal (log2 normalized intensity) of 0.264.
With CAGGGAACACACCATGTACAGAGAGCATTC the binding signal (log2 normalized intensity) was -1.29.
TTCCTTCCAAAGGTCACAGTAGGGAAAGTG showed a binding signal (log2 normalized intensity) of 4.11.
With TAAATGGACAGACACACCCTTCAGAGCTTG the binding signal (log2 normalized intensity) was -1.37.
